Where “and” joins values, the source holds several entries; their conditions need not be identical. Identical values can stand only once. The campaign covered roughly 48,000 compounds. About 1,200 (2.5%) were called active. Roughly 2% stayed inconclusive and do not appear here.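 Rule for the calls: active = activation of at least 60% and not above a set upper limit (about 1 call in 100 departs from these limits); inconclusive = activation of 40% to 60%, or above that upper limit; inactive = activation under 40%.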 This is one part of the list.

Chain of UniProt O75388 (O75388 whole entry, looked up, the tested form may be a part): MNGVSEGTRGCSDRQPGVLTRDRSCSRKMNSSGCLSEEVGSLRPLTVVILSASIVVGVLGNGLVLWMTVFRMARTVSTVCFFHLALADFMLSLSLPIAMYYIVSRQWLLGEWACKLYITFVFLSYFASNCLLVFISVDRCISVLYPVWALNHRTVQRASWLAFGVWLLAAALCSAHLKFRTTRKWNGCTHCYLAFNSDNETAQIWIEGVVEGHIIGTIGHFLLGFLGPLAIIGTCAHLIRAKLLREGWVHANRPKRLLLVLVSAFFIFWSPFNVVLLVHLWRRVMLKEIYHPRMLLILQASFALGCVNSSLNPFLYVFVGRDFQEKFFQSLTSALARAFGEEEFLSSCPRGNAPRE

This test concerns the target Probable G-protein coupled receptor 32 (Homo sapiens) (UniProt O75388). As to the kind of experiment: qHTS for Agonists of Human Resolvin D1 Receptor DRV1. Note: 0% is about no effect. The following applies: CHO-K1 GPR32 beta-arrestin PathHunter luminescence, 90 min; at 76.9 µM; active compounds read high; zero percent set by DMSO-only wells. In outline:
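GPR32 activation in stably transfected CHO-K1 cells, detected as beta-arrestin recruitment by enzyme-fragment complementation. Compound exposure: 90 min, 37 °C.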
(In general: qHTS replaces the single test concentration by a dilution series.)
Regarding `Oc1cc2c(cc1O)C(c1ccccc1)CNCC2` (centres undefined), the activation was inactive: -9.52%.

As for `COc1ccccc1CNC(=O)c1ccc(Cn2c(SCc3ccccc3)nc3cccnc32)cc1`, the activation is inactive: -8.28%.

Turning to `CCNC(=O)CC1C(=O)N(c2ccc(F)cc2)C(=O)N1CCOC` (centres undefined), the activation was inactive: -9.26%.

In the case of `CCOC(=O)N1CCc2c(sc3c2c(=O)n(-c2ccccc2)c(=O)n3CC(=O)Nc2ccc(OC)cc2OC)C1`, the activation is inactive: -8.7%.

`COc1ccc(NC(=O)CN2CCN(Cc3ccccc3)S2(=O)=O)c(OC)c1`: the activation is inactive: -15.4%.

In the case of `CCOc1ccc(OCC)c(NC(=O)c2cc(S(=O)(=O)N3CCCC3)cn2C)c1`, the activation is inactive: -10.1%.

Consider `O=c1c2sc3ccccc3c2n(Cc2cccc(Cl)c2)c(=O)n1Cc1ccco1`, for which the activation is inactive: -15.1%.

As to `CC(=O)c1ccc(NC(=O)CCc2c(C)nn(-c3ccc(N4CCOCC4)nn3)c2C)cc1`, the activation is inactive: -5.97%.

On to `Cc1cc(C)c(S(=O)(=O)NCCc2cc3ccc(C)c(C)c3[nH]c2=O)c(C)c1`, for which the activation is inactive: 18.8%.

Regarding `Cc1ccc(N2CCN(C(=O)C3CCN(S(=O)(=O)c4ccc5c(c4)oc(=O)n5C)CC3)CC2C)cc1` (centres undefined), the activation was inactive: 15.7%.

Turning to `COc1ccc(-c2noc(-c3ccc(NCc4cccnc4)c([N+](=O)[O-])c3)n2)cc1OC`, the activation was inactive: -3.99%.

Regarding `Cc1ccccc1OCCn1c(=N)n(C(C)C)c2ccccc21`, the activation was inactive: -7.57%.

In the case of `Cc1cc(NC(=O)c2cc(-c3cccc(Cl)c3)on2)n(-c2ccccc2)n1`, the activation was inactive: -2%.

Consider `CCOc1ccc(C2=CC(c3cccc(Br)c3)n3c(nc4ccccc43)N2)cc1Cl` (centres undefined), for which the activation was inactive: -4.44%.

For `Cc1cc(C)cc(-n2c(C)nc3cc(C(=O)O)ccc32)c1`, the activation was inactive: 8.45%.

On to `Cc1cccc(OCc2nc(CC(=O)Nc3ccc(C)c(C)c3)cs2)c1`, for which the activation is inactive: -6%.

Take `CCCn1c(CN2CCN(c3ccc(OC)cc3)CC2)nc2c1c(=O)[nH]c(=O)n2C`: the activation is inactive: 10.8%.

Take `COc1cc(-c2cc3n(C)c(C)c(CCC(=O)O)c(=O)n3n2)cc(OC)c1OC`: the activation is inactive: -5.23%.

On to `CCOc1ccc(NC(=O)C2CCN(C(=O)N3CC(C)Oc4ccc(Cl)cc43)CC2)cc1` (centres undefined), for which the activation is inactive: -7.91%.

In the case of `Cc1ccc(CNC(=O)CCC(=O)N2CC3CCCN3c3ccccc32)cc1` (centres undefined), the activation is inactive: -31%.

Consider `CC(C)CC(=O)Nc1nnc(S(=O)(=O)N(CC(C)C)c2ccccc2)s1`, for which the activation is inactive: -12.1%.

Take `Cc1cc2oc(C(=O)Nc3ccc(S(=O)(=O)N(C)Cc4ccccc4)cc3)cc(=O)c2cc1C`: the activation was inactive: -12.9%.

For the compound `O=C(Nc1ccc2oc(-c3cc(Br)ccc3Cl)nc2c1)c1cc2ccccc2o1`, the activation was inactive: -21.4%.

As for `Cn1c(=O)c2c(ncn2CC2OCCO2)n(C)c1=O`, the activation was inactive: -2.8%.

Consider `CCOc1cc2[nH]c(=O)n(CCC(=O)N3CCN(c4ccccc4)CC3)c(=O)c2cc1OCC`, for which the activation is inactive: -3.88%.

As to `COC(=O)c1c(NC(=O)CS(=O)(=O)c2ccc(C)cc2)sc2c1CCCCC2`, the activation was inactive: -43.5%.

Consider `Cc1ccc(-n2nc3c(N4CCCC(C(=O)NCc5ccccc5C)C4)nnc(C)c3c2C)cc1` (centres undefined), for which the activation is inactive: -14.9%.

As to `COc1cccc(C(=O)NCc2cn3cccc(C)c3n2)c1`, the activation was inactive: -7.81%.

Regarding `Cn1c(=O)n(C)c2cc(CNCc3ccccc3Cl)ccc21`, the activation is inactive: 11.9%.

In the case of `Cc1ccc2scc(N3CCCC(C)C3)c(=O)c2c1` (centres undefined), the activation was inactive: 5.89%.

Regarding `CCCn1c(=N)c(C(=O)NC(C)c2ccccc2)cc2c(=O)n3ccccc3nc21` (centres undefined), the activation was inactive: 0.21%.

Consider `O=C(c1ccc(Cl)cc1)n1nc(-c2ccccc2)nc1NCc1ccco1`, for which the activation was inactive: -20.4%.

`COc1ccc2c(c1)c1c(c(=O)n(-c3cc(Cl)ccc3C)c(=O)n1Cc1ccc(F)cc1)n2C`: the activation was inactive: -2.34%.

For the compound `CCOc1ccc(S(=O)(=O)Nc2cc3c(C(=O)OCc4ccccc4)c(C)oc3c3ccccc23)cc1`, the activation was inactive: 12.6%.

On to `CCOc1ccc(NC(=O)c2nn(C)c3c2COc2ccccc2-3)cc1`, for which the activation was inactive: -27.8%.

For the compound `CC(C)c1ccc(NC(=O)CSC2=Nc3ccccc3C3=NC(CCC(=O)NCc4cccs4)C(=O)N23)cc1` (centres undefined), the activation is inactive: -28.6%.

For `Cc1ccc(NC(=O)N2CCN3CCCCC3C2)cc1C` (centres undefined), the activation is inactive: 0.413%.

`Cc1c(Cl)cccc1-n1ncc(C(=O)NC2CCCC2)c1C1CCN(C(=O)OC(C)(C)C)CC1`: the activation is inactive: -11.1%.

Turning to `Cc1cc(C)c(-c2n[nH]c3c2C(c2ccccc2F)N(CCO)C3=O)c(O)c1` (centres undefined), the activation was inactive: -5.54%.

With `CCCOC(=O)c1c(-c2ccccc2)c(-c2ccccc2)nn(C)c1=O`, the activation was inactive: -18.8%.

In the case of `CC(=O)c1c(C)n(-c2cccc(Cl)c2)c2ccc(OC(=O)c3ccccc3)cc12`, the activation is inactive: 3.02%.

For `COc1ccccc1C(=O)OCc1cc(=O)n2c(C)csc2n1`, the activation was inactive: 36.6%.

Consider `CCSc1ncc(Cl)c(C(=O)Nc2cc(C)ccc2C)n1`, for which the activation was inactive: -2.64%.

As to `CC1=NS(=O)(=O)c2cc(Cl)ccc2N1`, the activation was inactive: -3.96% and inactive: 3.24%.

In the case of `COc1cccc(NC(=O)CSc2nc(=O)[nH]c3c2CCCC3)c1`, the activation is inactive: -4.15%.

Regarding `COc1ccc(-c2[nH]c(-c3ccc(C)cc3)nc2SCC(=O)NCC2CCCO2)cc1` (centres undefined), the activation is inactive: -31.7%.

As for `COc1ccc(NC(=O)Cn2c(=O)n(Cc3ccco3)c(=O)c3sc4ccccc4c32)cc1Cl`, the activation was inactive: -2.13%.

Turning to `O=C(Nc1ccc(Cl)cc1)c1ccc2c(c1)N(Cc1ccccc1)CCS2`, the activation was inactive: -23.9%.

In the case of `Cc1ccc(N2CCn3c2nc2c3c(=O)n(Cc3cccc(Cl)c3)c(=O)n2C)cc1C`, the activation was inactive: -9.68%.

In the case of `CC(C)c1ccc(NC(=O)CN2C(=O)C3(SCC(=O)N3c3ccc(F)cc3)c3ccccc32)cc1` (centres undefined), the activation is inactive: 9.01%.

`CCCOc1ccc(CC2C(=O)Nc3ccc(Br)cc32)cc1` (centres undefined): the activation is active: 77.9%.

On to `CCCC12CN3CC(CCC)(CN(C1)C3c1c[nH]c3ccc(OC)cc13)C2=O` (centres undefined), for which the activation is inactive: -6.04%.

As for `O=C(CN1C(=O)CCSc2ccc(S(=O)(=O)N3CCCC3)cc21)Nc1ccccc1Cl`, the activation was inactive: -5.19%.

With `CCN(C(=O)CSc1nc2ccccc2nc1Cc1ccccc1OC)c1ccccc1`, the activation was inactive: -6.74%.

Consider `CC(C(=O)NCc1ccccc1)n1ccc2cc(S(=O)(=O)N3CCCC3)ccc21` (centres undefined), for which the activation is inactive: 5.29%.

Regarding `CCOc1ccccc1CNC(=O)CCc1cn(C)c2ccccc12`, the activation was inactive: -16.9%.

For `CCSC1=NC2(CCN(C(=O)NC3CCCCC3)CC2)N=C1c1ccc(OC)cc1`, the activation is inactive: 15.4%.

Consider `Cc1nc(CC(=O)Nc2ccc(C(N)=O)cc2)cs1`, for which the activation is inactive: -6.12%.

With `Cc1ccc(C(=O)CC2(O)C(=O)N(CCc3ccccc3)c3ccc(Br)cc32)cc1` (centres undefined), the activation was inactive: -6.68%.

In the case of `CCOCCCNC(=O)C(c1ccc(OC)cc1)N(Cc1cccs1)C(=O)CNC(C)=O` (centres undefined), the activation was inactive: -10.7%.

`CC(=O)Nc1ccc(S(=O)(=O)NC2(C(F)(F)F)C(=O)Nc3c2c(=O)[nH]c(=O)n3-c2ccc(C)cc2)cc1` (centres undefined): the activation is inactive: -5.44%.

Turning to `CCc1cccc(NC(=O)CN2C(=O)COc3ccc(S(=O)(=O)N4CCC(C)CC4)cc32)c1`, the activation was inactive: -30.4%.

Regarding `COc1ccc(NC(=O)Cn2c(=O)n(Cc3ccccc3Cl)c(=O)c3cc(OC)c(OC)cc32)cc1`, the activation is inactive: 16.4%.

Consider `CCOC(=O)c1cc2c(=O)n3ccccc3nc2n(CCCOC)c1=NC(=O)c1cc2ccccc2o1`, for which the activation was inactive: 5.07%.

`O=c1oc2ccc(Cl)cc2cc1-c1nc(-c2cccs2)no1`: the activation is inactive: -0.299%.

In the case of `COc1cccc(-n2c(C)nc3c(cnn3-c3ccc(C)c(C)c3)c2=O)c1`, the activation is inactive: 16.6%.

`Cc1ccc(Cn2c(C)c3cnn(CC(=O)N4CCN(c5cc(C)ccc5C)CC4)c(=O)c3c2C)cc1`: the activation was inactive: -2.68%.

`Cc1ccc(CCNC(=O)c2cc3ccccn3n2)cc1`: the activation was active: 111%.

With `Cc1ccc(NC(=O)C2CCC(CNS(=O)(=O)c3cccs3)CC2)cc1C` (centres undefined), the activation was inactive: 2.33%.

As for `CCC(=O)N1c2ccc(S(=O)(=O)CCC(=O)NCc3ccc(OC)cc3)cc2CC1C` (centres undefined), the activation is inactive: 10.8%.

In the case of `CCOC(=O)C1CCN(C(=O)c2ccc(C)c(NC(=O)c3nsc4ccccc34)c2)CC1`, the activation is inactive: -22.6%.

Turning to `O=C(Cn1c(=O)c2ccccc2n(CC(=O)Nc2ccccc2F)c1=O)NCCc1ccccc1`, the activation is inactive: -4.35%.

For the compound `Cc1cc(C)c(S(=O)(=O)NCC(c2ccco2)S(=O)(=O)c2ccccc2)c(C)c1` (centres undefined), the activation was inactive: -7.46%.

Turning to `O=S(=O)(Nc1ccc(OC(F)(F)F)cc1)c1ccc(N2CCCCS2(=O)=O)cc1`, the activation is inactive: -9.11%.

Regarding `CCc1cccc(C)c1Nc1c(-c2cccs2)nc2ncccn12`, the activation is inactive: -24%.

Turning to `CC(C)c1ccc(S(=O)(=O)NCc2nc3cccnc3n2Cc2ccc(F)cc2)cc1`, the activation is inactive: -18.9%.

In the case of `CC1=C(C(=O)Nc2cc(C)cc(C)c2)C2(CCCCC2)OC1=O`, the activation was inactive: -12.5%.

With `O=C(Nc1ccc(F)c(F)c1)c1ccc(=O)n(Cc2ccc(F)cc2)c1`, the activation was inactive: 31.8%.

Regarding `COc1ccc(NC(=O)COCc2cc(-c3ccco3)on2)cc1Cl`, the activation is inactive: -17.3%.

Regarding `COc1ccc(CCNC(=O)CCc2c(C)c3ccc(O)c(C)c3oc2=O)cc1`, the activation is inactive: 36.2%.

`Cc1nc2nc(CNC(=O)OC(C)(C)C)nn2c(C)c1CCC(=O)NCc1ccccc1Cl`: the activation was inactive: -4.86%.

For the compound `CCc1ccc(-n2c(=O)c3sc4ccccc4c3n(CC(=O)NC3CCCC3)c2=O)cc1`, the activation was inactive: 12.4%.

`COc1cc(OC)c(NC(=O)CCc2nc(C3=CCN(Cc4cccc(Cl)c4)CC3)no2)cc1Cl`: the activation is inactive: -3.03%.

As for `Nc1nc(N)c(S(=O)(=O)c2ccccc2)c(Nc2ccccc2)n1`, the activation is inactive: 23.3%.

The values above are taken from PubChem BioAssay AID1346428 (National Center for Advancing Translational Sciences (NCATS), 2018).
